Paper PMC4336329 (PLoS ONE, 2015)
The whole screen tested about 310,000 compounds, of which about 14,000 (4.5%) showed an effect of 50% or more. Effects have a minus sign here. Some of the results follow.

These compounds were tested against human ether-à-go-go-related gene (hERG) potassium channel (human, UniProt Q12809) (assay: primary screen, population patch clamp on CHO cells stably expressing hERG).
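Also: peak tail current of the secondary pulse compared with the same well before compound.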

human ether-à-go-go-related gene (hERG) potassium channel, sequence (Q12809 whole entry, looked up): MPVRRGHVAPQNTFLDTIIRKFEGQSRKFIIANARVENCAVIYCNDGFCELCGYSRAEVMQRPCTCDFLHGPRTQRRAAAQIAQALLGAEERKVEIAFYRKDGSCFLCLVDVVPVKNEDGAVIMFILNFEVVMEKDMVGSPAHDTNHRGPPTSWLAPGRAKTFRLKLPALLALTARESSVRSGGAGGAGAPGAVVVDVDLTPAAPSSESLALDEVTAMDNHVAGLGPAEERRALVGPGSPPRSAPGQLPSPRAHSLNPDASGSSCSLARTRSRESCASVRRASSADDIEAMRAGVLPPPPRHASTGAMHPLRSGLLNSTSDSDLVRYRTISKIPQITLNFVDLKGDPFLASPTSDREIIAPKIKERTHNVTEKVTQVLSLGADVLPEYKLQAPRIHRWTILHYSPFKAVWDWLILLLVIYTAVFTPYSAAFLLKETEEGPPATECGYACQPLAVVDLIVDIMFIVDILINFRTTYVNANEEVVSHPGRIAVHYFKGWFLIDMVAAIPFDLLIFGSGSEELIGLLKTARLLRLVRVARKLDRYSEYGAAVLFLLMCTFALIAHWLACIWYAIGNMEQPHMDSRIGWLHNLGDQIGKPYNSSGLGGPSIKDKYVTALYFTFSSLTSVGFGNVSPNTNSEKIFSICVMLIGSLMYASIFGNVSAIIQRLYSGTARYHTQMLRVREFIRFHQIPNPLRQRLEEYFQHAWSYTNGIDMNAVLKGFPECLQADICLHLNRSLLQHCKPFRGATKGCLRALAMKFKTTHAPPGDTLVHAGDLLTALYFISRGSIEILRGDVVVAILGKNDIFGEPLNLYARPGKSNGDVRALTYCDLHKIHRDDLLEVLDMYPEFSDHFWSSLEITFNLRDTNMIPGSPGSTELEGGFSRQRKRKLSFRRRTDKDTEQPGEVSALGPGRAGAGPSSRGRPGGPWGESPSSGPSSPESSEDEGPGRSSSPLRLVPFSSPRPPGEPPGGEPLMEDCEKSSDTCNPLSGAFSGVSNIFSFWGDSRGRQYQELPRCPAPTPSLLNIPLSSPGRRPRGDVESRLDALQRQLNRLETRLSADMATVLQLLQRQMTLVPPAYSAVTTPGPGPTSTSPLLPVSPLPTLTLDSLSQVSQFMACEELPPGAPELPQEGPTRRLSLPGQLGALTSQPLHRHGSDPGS

| Structure (SMILES) | hERG current change (%, negative = inhibition) at 10uM [%] |
| --- | --- |
| COc1cc2c(cc1OC)CN(CC(=O)Nc1ccc(S(=O)(=O)N3CCCC3)cc1)CC2 | -3.4 |
| Cc1ccc(S(=O)(=O)/C(C#N)=C/c2c[nH]c3ccccc23)cc1 | 3.58 |
| Fc1cccc(NC(=S)NCC(c2cccnc2)N2CCOCC2)c1 (stereo not drawn) | -16.1 |
| CCC(C)c1ccc(OCC(=O)NNC(=O)C2CCCCC2)cc1 (stereo not drawn) | 2.48 |
| O=C(C1CCC1)N(CCc1ccccc1)Cc1nc2ccccc2c(=O)[nH]1 | -4.04 |
| Cc1ccc(S(=O)(=O)NC(=O)NC(C)Cc2ccccc2)cc1 (stereo not drawn) | 34.9 |
| CCn1c(SCC(=O)Nc2ccccc2C)nc2nc3c(cc2c1=O)COC(C)(C)C3 | -21.4 |
| Cc1cc2ccccc2n1CCNC(=O)C1CCCCC1 | -4.75 |
| Cc1ccnc(NC(=S)NC(=O)c2cncc(Br)c2)c1 | -6.59 |
| CCCC(=O)Nc1ccc(Br)cn1 | 12.9 |
| Cc1ccc(P(C)(=O)c2ccc(C)cc2)cc1 | 11.6 |
| Cc1ncc(CSc2nccc(=O)[nH]2)c(CO)c1O | 21.2 |
| O=C(CCCc1ccccc1)Nc1ccnn1C1CCN(Cc2ccccc2)CC1 | -77.3 |
| O=C(NCCOc1ccc(Cl)cc1)C1CCCCC1 | 2.17 |
| Cc1cc(C)c2oc(C(=O)Nc3ccc(S(=O)(=O)Nc4nccs4)cc3)cc(=O)c2c1 | 14.5 |
| Cc1noc(C)c1C(=O)N1CCCC(Nc2ccc(C(C)C)cc2)C1 (stereo not drawn) | 22.2 |
| CCc1cccc(NC(=O)c2snc3c(=O)[nH]cnc23)c1 | 7.58 |
| C=CCOC(=O)CCCCCCCC | 15.3 |
| O=C(COc1ccc(Br)cc1Cl)Nn1cnnc1 | 14 |
| CCc1nc(N2CCOCC2)c(C#N)c2c1CCCC2 | -12.2 |
| CCOC(=O)c1ccc(NC(=O)CSc2nnc(C3CC3)n2CC)cc1 | 1.87 |
| COCCCC1CCN(C(=O)CCc2nnc(CCCCc3ccccc3)o2)CC1 | -11.9 |
| O=c1nc2cccc3c2=c(/c1=C(\O)c1ccccc1)c1ccccc1c3=O | 27.7 |
| CCOc1ccc(Nc2ncnc(N)n2)cc1 | 10.3 |
| CN(C)S(=O)(=O)N(CC(=O)Nc1ccccc1F)c1ccccc1 | -10.6 |
| O=C(C1CC(c2ccc(F)cc2)=NO1)N1CCC2(CC1)OCCO2 (stereo not drawn) | -0.16 |
| Cc1cc2ccccn2c1C(=S)NC(=O)c1ccccc1 | 6.89 |
